Experimental data taken from PubChem BioAssay AID686992 (Broad Institute, 2013).
About 960 (0.37%) of roughly 260,000 compounds were called active. The shares of active, inactive and inconclusive entries below differ from those in the screen.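 How the source made its calls: active means mean E-selectin-positive cell signal at least 10% of the positive control, reached in at least 60% of replicates, without over 20% cell loss; inconclusive means no rule given, readout overlaps actives, possibly toxicity-flagged; inactive means the rest, including those meeting only one limit.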

These compounds were tested against E-selectin (Homo sapiens) (UniProt P16581) (assay: inducers of endothelial E-selectin expression – imaging, HUVEC, immunofluorescence imaging, single point, primary screen (AID 686992;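 further: signal is the percent of cells scored E-selectin positive by PE staining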)). Settings: at 7.58 µM, active compounds read high, normalized: neutral wells 0, TNF-alpha wells 100.
How it was run: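 Read-out basis: % PE-positive cells; Test system: HUVEC primary endothelial cells; Technique: immunofluorescence imaging; Dosing: single-point compound dose.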

Chain of UniProt P16581 (P16581 whole entry, looked up): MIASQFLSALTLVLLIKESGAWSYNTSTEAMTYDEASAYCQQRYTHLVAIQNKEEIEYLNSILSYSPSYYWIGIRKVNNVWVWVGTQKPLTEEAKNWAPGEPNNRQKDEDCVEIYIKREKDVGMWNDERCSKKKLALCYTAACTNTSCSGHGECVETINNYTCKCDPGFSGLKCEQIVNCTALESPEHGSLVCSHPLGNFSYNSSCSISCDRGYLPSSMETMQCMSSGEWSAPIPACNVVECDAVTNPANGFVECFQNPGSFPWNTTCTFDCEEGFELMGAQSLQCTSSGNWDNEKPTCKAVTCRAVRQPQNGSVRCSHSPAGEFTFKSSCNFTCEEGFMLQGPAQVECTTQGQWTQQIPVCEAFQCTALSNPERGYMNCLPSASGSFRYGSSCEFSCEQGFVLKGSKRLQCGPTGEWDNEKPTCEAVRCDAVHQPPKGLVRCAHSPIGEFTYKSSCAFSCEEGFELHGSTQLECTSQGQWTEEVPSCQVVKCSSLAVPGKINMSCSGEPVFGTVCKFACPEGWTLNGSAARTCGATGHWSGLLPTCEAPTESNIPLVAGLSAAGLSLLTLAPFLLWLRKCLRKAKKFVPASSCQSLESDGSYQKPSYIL

Q: Which activation does the source give for `Cn1c(NC(=O)c2ccc3c(c2)OCO3)cc(=O)n(C)c1=O` here?
A: inconclusive: 104%

Q: With `CC[C@@H](C)[C@@H]1CN([C@@H](CN2CCC[C@H]2CN2C(N)=NC[C@H]2CC(C)C)C(C)C)C(=N)N1CCc1ccc(Cl)c(Cl)c1` as the compound, how does the activation read?
A: inactive: -0.098%

Q: Which activation does the source give for `CCO[C@@H]1OC(C(=O)NCc2nc3ccccc3[nH]2)=C[C@H](c2coc3ccccc3c2=O)[C@H]1CCCO` here?
A: inactive: 0.144%

Q: With `COc1ccccc1/C=C/C(=O)Nc1ccc(S(=O)(=O)Nc2cc(C)nc(C)n2)cc1` as the compound, how does the activation read?
A: inconclusive: 30.3%

Q: `COc1ccc(C)cc1C(=O)CCC(=O)N1CCN(c2ccccc2F)CC1` was tested. Which activation did it give?
A: inconclusive: 42%

Q: For `Cc1ccc(OCC(=O)N(Cc2ccc(N(C)C)cc2)C2CCS(=O)(=O)C2)cc1C` (centres undefined), which activation is on record?
A: inconclusive: 40.5%

Q: How did the activation turn out when `CC(C)NC(=O)CCN1C(=O)c2ccccc2Sc2ncccc21` was run?
A: inconclusive: 51.7%

Q: For `O=C(NC1CCCC1)C(c1ccc(F)cc1)N(C(=O)c1csnn1)c1ccccc1` (centres undefined), which activation is on record?
A: active: 35.5%

Q: For `Cc1ccc(S(=O)(=O)N(C)C[C@@H]2OCc3cn(nn3)CCCC(=O)N([C@@H](C)CO)C[C@@H]2C)cc1`, which activation is on record?
A: inactive: -0.096%

Q: How did the activation turn out when `N/C(=N\OC(=O)COc1cc(Cl)c(Cl)cc1Cl)c1ccncc1` was run?
A: active: 73.7%

Q: How did the activation turn out when `CCCN1C[C@H](C)[C@H](OC)CN(C)C(=O)c2cc(NC(=O)c3cnccn3)ccc2OC[C@@H]1C` was run?
A: inactive: 0.834%

Q: How did the activation turn out when `CC(=O)Nc1ccc(C(=O)NNC(=O)C2C3CCCCC32)cc1` (centres undefined) was run?
A: inconclusive: 33.9%

Q: For `CCNC(=O)C[C@H]1C=C[C@H](NC(=O)NC2CCCCC2)[C@H](CO)O1`, which activation is on record?
A: inactive: 0.344%

Q: `CCCCNc1c([N+](=O)[O-])c(=O)n(C)c2ccccc12` was tested. Which activation did it give?
A: active: 47.6%

Q: With `C[C@H](CO)N1C[C@H](C)[C@H](CN(C)C(=O)c2ccccc2)OCc2ccccc2-c2c(n(C)c3ccccc23)C1=O` as the compound, how does the activation read?
A: inconclusive: 112%

Q: How did the activation turn out when `C[C@H](CO)N1C[C@H](C)[C@H](CN(C)C(=O)c2ccc3c(c2)OCO3)Oc2cc(-c3ccccc3)ccc2S1(=O)=O` was run?
A: active: 108%

Q: Which activation does the source give for `C[C@@H]1CN([C@H](C)CO)C(=O)c2cc(-c3cncnc3)cnc2O[C@@H]1CN(C)C(=O)c1ccccc1F` here?
A: inconclusive: 39.3%

Q: How did the activation turn out when `C[C@@H]1CN([C@H](C)CO)C(=O)c2cc(NS(=O)(=O)c3cn(C)cn3)ccc2O[C@H]1CN(C)C(=O)Nc1ccc2c(c1)OCO2` was run?
A: active: 255%

Q: Which activation does the source give for `C[C@@H]1CN([C@H](C)CO)C(=O)c2cccc(NC(=O)Nc3ccc4c(c3)OCO4)c2O[C@@H]1CN(C)C(=O)Nc1ccc(C(F)(F)F)cc1` here?
A: active: 59.9%
